# Laboratory results from the RNAGym collection of RNA variant scans (doi:10.7554/elife.90254).
# The source gives no read counts; variants with many changes may rest on few reads.
# B1: LINE1-mini (parent)
# chain: GGCAGAGCUCAACACAGCGUGGCAAAGUGGCUGUGGCUAGACUGCC
# Variants of: B1
# Assay: self-cleavage, relative activity (ratio to wild type); higher = more cleavage; in vitro, sequencing; the parent is a self-cleaving ribozyme
row,Variant,self-cleavage
1,A11U A24C G33A,0.03
2,A12C G22U U28C G44U,0.01
3,A12C C15U U38C,0.02
4,A11U G22U U38C C42U,0.06
5,A11G A25G G30U,0.01
6,A12C A14C A26C C31A U32A,0.01
7,A11U A14U G33U C46U,0
8,A12G C13U A25U,0
9,A11G G33U U34G C37U,0.01
10,A12G C18A U38A,0.04
11,A11G C23G G29A C46A,0.04
12,A11U C23A C31A,0.05
13,A11U C13A G22C A26U G36U,0
14,A12C A14U U20G A25C U28G,0.01
15,A11G C13A G21A U34C G40C,0.02
16,A11U A26U G36A,0.01
17,A12C A16U U34A,0.01
18,A12C C15G A25G,0.01
19,A11U G36A C45U,0.02
20,A11U C18A C31U G33A C45A,0
21,A11G G27U G35U A41U C46U,0.01
22,A12G C13U G35U,0.02
23,A11U C13G A14C A25C C31G,0
24,A12C U20G A24C A25U,0.01

row,Variant,self-cleavage
1,A11G G19C A26C C31G C45U,0
2,A12C G27A G36C,0
3,A12C C23A A26U U28A U32G C37A,0.01
4,A11U G19A A26C G33U,0
5,A11G G17U A24C G33C,0.01
6,A11G G27C G30A G33C A39G A41U,0.01
7,A12C G19C C42U,0
8,A11U A25C G35A,0.02
9,A11U C15A G36A,0.03
10,A11G G21C C23A,0.02
11,A11G A16C C23U U34G C37G A39C G40U,0.01
12,A11G A41U U43A,0.01
13,A12C G27C U38G A41C,0
14,A11U A25G U32A G44U,0.02
15,A12C G36A A39C,0.01
16,A12C A16U G17A C23G U34G U38A,0
17,A11U U32C U34A,0.02
18,A12C A24C A39U,0.05
19,A12C A24G U32G G36U,0.01
20,A12C U20G G35U G44C,0.01
21,A12G C15A G19C C37A,0.01
22,A11G G19C A26U,0.02
23,A11U U32C G44U C46U,0
24,A12C A26U G33C A41C,0.02

row,Variant,self-cleavage
1,A11G C13U G40U,0.02
2,A11G C45U C46U,0.03
3,A12G A25U A26C G29C,0.01
4,A11G G19C G22U A26G C31A,0.02
5,A12C A16U G22U,0.03
6,A12C A16C G29U,0.02
7,A11U A12G C13G,0
8,A11G A26G G40A C45U,0.01
9,A12C C15A A26C C46G,0.01
10,A11G A16C G27U C31A C37A,0.02
11,A11U G17U G19A,0.01
12,A12G A16U C18A G33U,0.04
13,A12G C23G G36A C42A,0
14,A11U G19U G35C,0.02
15,A11U G19A U20C,0.03
16,A11U C13G C37A,0.03
17,A11G G21U U38G,0
18,A11G C13A U32C,0
19,A11U U20A G22U G27C C37G A41U,0
20,A12C G21A A24U U34C G40U A41U,0.02
21,A11G C15A A25G A26U,0.04
22,A12C G22C G30A G36U C37U C46A,0.03
23,A11U G17A U43G,0.03
24,A11U A16C G35U C37A C42U,0.01

row,Variant,self-cleavage
1,A12C C13U C31G G33U,0.01
2,A11U G21U U34A,0.07
3,A12C A24C A39G C42A,0.01
4,A12C A14C A16C C37A,0.05
5,A11G C15U C18A,0
6,A11G C18U A26C U43C,0.03
7,A12G C15U G35C,0.05
8,A11G C15U U43C,0.01
9,A12G C18U G19A,0.03
10,A12C C13G C37A,0.01
11,A11G A26G U32A,0.03
12,A11U A14U A39C U43A C46U,0.02
13,A12C G21A U34C A39U C42A,0.01
14,A11G C31G C46U,0
15,A11G C23A C31U U43G C46G,0.01
16,A11G A25U U34C C37A C42U,0.02
17,A11U G29C G30U,0.01
18,A11G A25U G33U,0.02
19,A12C C15A G21U U43G C46A,0
20,A12G A25U G40U,0.03
21,A11G G17U U32C U34A U38G C45G,0
22,A12C G21A G36A C37A,0.12
23,A12G C13A C45G,0.03
24,A11G A16U G29A G44C,0.01

row,Variant,self-cleavage
1,A11G U20C C45A,0.07
2,A11U G22U U34C G40U U43G C46A,0
3,A11U A12U U34C G35U,0
4,A11U G17U G44U C45U C46G,0
5,A12G C18A G22A G27C C42U,0.01
6,A11G U20G U38A,0.01
7,A11G U20C G33A U38G G40A,0
8,A12G C15A A16G A39U,0.02
9,A11U G17A C45G,0.03
10,A11G C15A A16G,0.03
11,A11G A14U G35C U43A,0
12,A11G C18G C31A G35U U38A C45G,0.02
13,A11G U28A G33U,0.02
14,A11U A16U C42U,0.04
15,A11U C18G U43C G44A,0.02
16,A12C C13A A25U U38G,0.01
17,A11U G29A G44U,0.04
18,A11U C23A U38G,0.01
19,A11U A16G G29U G30U,0.03
20,A12G C18G C37U,0.03
21,A11U A39U C42U,0.03
22,A11U A14G G17U A41U U43C,0.02
23,A11G G17A C45G,0.02
24,A11U G35U C42A,0.02

row,Variant,self-cleavage
1,A11U C31U G40U,0.03
2,A11U A12G A24G G35C C42G,0
3,A11G G19A G30A U34A,0.02
4,A12C C18G A39U G40A G44C,0
5,A11U G40U C45A,0.01
6,A11U G40U C45U,0.02
7,A11U G35U G36U G44U,0.01
8,A11G A14C C15G C18G G29U G36A U43A,0
9,A11G C13A A16U U20A,0.06
10,A12C G17C C18U A39G,0
11,A11U A25C U38C G40C,0
12,A11G A39U G44A,0.04
13,A12G C18A C31A G36C,0.08
14,A12G A24G C31A,0.05
15,A12C G17U G35C G40A,0.01
16,A11G G17U C18A U28C G29U G33U G44A,0.02
17,A11G G19C G27C G36C,0.02
18,A11G C13G A14U G22U U28C,0.01
19,A11U A12U A41G G44C,0.02
20,A12G C15A G40U,0.1
21,A11U C15A A16G G40C,0.01
22,A11G G29U G40A,0.02
23,A11U A24G G40C,0.04
24,A11U U28C C31U,0.01

row,Variant,self-cleavage
1,A12C C13A C23U A25U,0.02
2,A12C C23G C37U,0.02
3,A12C G17U G40A,0.02
4,A11U U28G G29A,0.04
5,A11U A26G G35U G36U A41G,0
6,A12C U28G A41G,0.01
7,A11G G22C C46A,0.01
8,A12C C15U C45A,0.05
9,A11G U20G G27C A41G,0.01
10,A12C A14C G30C,0.15
11,A11U C15A G40C,0.01
12,A11U G40C U43G,0
13,A11U G40C U43C,0.02
14,A12G C13A C42U G44U,0.05
15,A11U G30A U32C G36U G44U,0.02
16,A11G U20A A26C U34A G35C,0.02
17,A12C C18A C42U,0.03
18,A11G G19A G40U C42U,0.01
19,A12G C15U U28A U32G,0.02
20,A11U C18G A25C C31U A39C G40C,0
21,A12G C13U C18A G22C G44U C45A,0.01
22,A11U C15U C23U G30C G40U,0.01
23,A12C A25C U32G U43A,0.01
